Experimental data reported in the supplement of paper PMC3334620.
Over roughly 33,000 sequences, “E-score (-0.5 to 0.5)” has its median near -0.01; the highest 2% begin near 0.26. Some of the results follow.

target: Ste12 (UniProt P13574); assay: PBM E-score (8-mer binding enrichment) (E-score (-0.5 to 0.5)); higher = stronger / more preferred TF binding; most listed sequences are background and not binding sites; conditions: protein concentration: 200 nM; construct: GST-DNA-binding domain
Outline: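 GST-tagged yeast TFs (full-length or DNA-binding domain) were made by PURExpress in vitro transcription/translation and applied at about 100-200 nM to universal all-10-mer Agilent arrays. The arrays were made double-stranded by primer extension, on fresh or once-stripped slides. Bound protein was detected with fluorescent anti-GST, and scans were normalised with masliner. Each ungapped eight-base word, pooled with its reverse complement, received an E-score (modified Wilcoxon-Mann-Whitney statistic) from the Universal PBM Analysis Suite.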

Sequence	PBM E-score
ATACCTAG	0.0661
AAGAGGAG	-0.196
AAAAACTT	0.146
TCAAGACA	0.117
AGTTTGGC	-0.0448
AATAAAAG	0.035
CCAAGTCA	-0.00159
CCTGCTCC	-0.0949
AATCATGA	0.136
TCGCACGA	0.0351
GGGACTCA	-0.328
CCGAGGGA	-0.141
CGGGCCCC	-0.136
GGTGACAC	0.0658
AGGCGCCA	-0.107
CAGATTCG	0.193
CCAGACCC	-0.0377
ACCAGATG	0.0388
GCGATAGC	-0.161
TAGAGAAA	0.0197
CTAATTTC	0.0923
CAAATACA	0.212
CTGTGGGA	-0.0833
GCTTCATA	0.173
AAGCAAAA	0.142

Sequence	PBM E-score
CACACGGG	-0.0448
CTCGAAAC	0.215
AATACAAG	0.302
CAGCTCCA	-0.152
CCGCCCCC	-0.00614
CAAACAGG	-0.00741
CAGCGGGC	-0.266
AACTTCCC	-0.0625
GCGACCGA	-0.0219
CAGTTTCG	0.181
CTTCTGTA	-0.0644
GGGTTAAA	0.142
AATGGAGC	-0.0645
GGTCCGAC	-0.142
TAACCGCA	-0.018
CGATCAAA	0.105
AGGAATTA	0.0644
CCTCCCCG	0.283
AAGAAGTC	-0.0846
ATTTTTCA	0.222
AGAAGAGA	0.0223
ATGCTTGG	-0.0132
CTACGAGA	-0.0402
ATCGATCC	0.021
CATGCGCG	-0.235

Sequence	PBM E-score
AACTCGTA	0.143
CGCTCTGC	-0.0953
CATAGCGG	-0.207
ATTTCCTC	0.0672
ATCATGGA	0.102
GCCGCGGC	0.29
AACGCACA	0.09
CGAGCAGA	-0.00418
CGAGAAAG	0.0304
AAGTTTGC	0.0723
ATCCTCTA	-0.148
GGTAAGAA	-0.0428
ATTTTCAG	0.223
TCGACAAA	0.105
GCTAGCCC	-0.0936
CTCCCCAC	0.0871
CACGCGGG	-0.0962
CGAGGCTC	-0.172
CTAGCGGA	-0.0933
GTAAACCA	-0.00688
ATTCGTAG	-0.00086
AACCGAGA	0.189
AGTAATGC	0.0246
AGATGCAT	-0.141
CAACTCAG	0.0872

Sequence	PBM E-score
ACCTTACG	0.0785
GGATATTA	0.092
CCGTGCGC	-0.0188
AGGAGACC	-0.122
CGTGTGCC	-0.139
GCAGCCCC	-0.0443
ATGGCGCG	0.017
AACGTCGG	-0.0934
ATAGCTTA	-0.0978
CATGATGC	-0.0362
ATGGCTAG	-0.194
GTCGGAGA	0.0578
ACTGCTGC	-0.0761
TCCCCTAA	0.167
TCGCAAGA	0.0142
CTTGACGC	-0.0472
GTGCAAAA	0.009
AGTCAGCG	-0.121
GAACCACC	-0.0119
ATCCAGAG	0.12
CCATAGGA	-0.187
TCCAGGAA	-0.0739
AAATTCAG	0.165
CTTTTGCA	0.166
CACCCAAA	0.132

Sequence	PBM E-score
ACCAATAA	-0.0945
CTGCGTAA	-0.119
AGGTACGC	0.0829
CCTTATCG	0.258
GCTTCGCC	-0.298
AGCCGAAT	0.109
AACGCTGG	-0.14
ACGTATTC	0.00997
AAGATAGA	-0.0583
CAGGTATA	-0.0647
CATATCAA	0.228
GGCCCCAA	-0.177
CGCTAGGC	-0.112
TACGTACA	0.0295
AAGTCAGG	0.0527
ACTTGCGG	-0.213
ACCAGCTG	-0.191
ACCTGTGG	-0.239
CTATTGCA	0.0988
ACATGACT	-0.112
CGCAGTCA	-0.0938
ACGCATAC	-0.00196
ACCGTCGC	0.0497
ATAATCGA	0.193
CAGTTGGG	-0.0209

Sequence	PBM E-score
AGAGTGGG	-0.0757
ACTTCCGC	0.102
CAGTTCCC	0.142
CGCTGGAC	-0.0892
AGTTTCAC	0.338
CAGACTAG	-0.0565
CCATCGAA	0.0948
CACCAGTG	-0.159
ACGGCTGC	-0.113
CTCAGGAG	0.0425
TCCGACGA	-0.109
CAATTCCC	0.138
CATTGCAC	0.151
TGCGTCAA	0.0654
AACCTAGC	-0.0149
CCGTTGGA	-0.136
AGAGAGAG	-0.102
ATAACCCA	0.136
GATTGTCA	-0.034
CGGAGGGC	-0.241
ACATTAAT	0.211
CTTCAATC	0.00697
AAAATGAC	0.121
ACCCTCGA	-0.104
ATTGAGCA	-0.194

Sequence	PBM E-score
AAGCTGTA	0.113
GTACAAGA	-0.0216
AGCTGTTA	0.0174
AGAACCCT	-0.0638
CAAATAGA	0.0902
CTCCTAGA	-0.119
AAACAGCG	0.158
GTGGACGA	-0.0401
ACCACGAA	-0.00575
ACGTGATG	0.0516
CGTACCAA	-0.151
CTCTGTGA	0.0231
CTAGTACA	0.0611
GGCTATTA	0.0659
AGGTGAGA	0.121
AGAGCCGA	0.135
AGCTTTCC	-0.112
ATCCGAAC	0.0597
CATACGGG	-0.108
CAAGTATA	-0.0597
CACGGAGG	-0.133
AAATACTG	0.114
